The other results are listed elsewhere or left out.

The test system of this experiment is PfSIP2 AP2 domain 1 (GST-tagged). Briefly: gcPBM binding intensity (ln(normalized median fluorescence intensity)); higher = stronger DNA binding. The essentials: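 Binding intensity is the highest Masliner-normalised natural-log median intensity over replicate spots in either probe orientation. To obtain it, GST-tagged P. falciparum DNA-binding domains made in E. coli were incubated for 1 h on an Agilent 4 × 180k array of primer-extended double-stranded 36-bp intergenic genomic probes plus negative controls. Detection used Alexa488 anti-GST antibody with scanning at 488 nm.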
Take “CTAATAAAAAAAAAAAGTACATATGACAATATAAAG [XGTACX_site1598]”: the “gcPBM binding intensity (ln)” value stood at 6.94.

For the sequence “TATATATTAGTGTTGACACACACAAAAAAAAAAAAA [CACACA_site8392]”, the “gcPBM binding intensity (ln)” value turned out to be 7.21.

“TATAAACAGACGAAAACACACATATGTAGATATATA [CACACA_site6371]”: the “gcPBM binding intensity (ln)” value stood at 6.84.

In the case of “ATCAGGCAAAATTTTTGTACATATATATTTTATTTT [XGTACX_site1245]”, the “gcPBM binding intensity (ln)” value worked out at 7.09.

Turning to “ATTTTTTTTTTTTTTTTTTTTTTTTATGAATGTTAT [CACACA_negctrl_site1319]”, the “gcPBM binding intensity (ln)” value was 6.99.

Turning to “AGATTTCAAGGTAATAGATCAATTTTAATTTGTAAA [CACACA_negctrl_site514]”, the “gcPBM binding intensity (ln)” value is 6.6.

For “ATTTTTTTTTTTTTTTTTTTTTTTTTTTTTTTTTTT [CACACA_negctrl_site1364]”, the “gcPBM binding intensity (ln)” value came to 9.

As to “TATAAAATACTGTATCGATGGGGGAGGGCGCAGGGG [TGCATGCA_negctrl_site250]”, the “gcPBM binding intensity (ln)” value came to 8.43.

In the case of “AAAAAAAAAAAAAAAAAAAAAAAAAAAGATTATGAG [CACACA_negctrl_site1088]”, the “gcPBM binding intensity (ln)” value was 8.62.

For “TCAAATGTATATAATTGTACTTATCCTTTTCATTTT [XGTACX_site4879]”, the “gcPBM binding intensity (ln)” value was determined as 6.98.

Turning to “AAAAATTAGAAACACACACACATATATATATATATT [CACACA_site1042]”, the “gcPBM binding intensity (ln)” value is 7.31.

On to “TTTTAAGTTTTTGAATGTACGTAATTTGTAAATTCT [XGTACX_site2448]”, for which the “gcPBM binding intensity (ln)” value was 6.9.

For the sequence “TTACTTGTTTATTTTTTTTTTTTTTTTTTTTTTGTT [TGCATGCA_negctrl_site103]”, the “gcPBM binding intensity (ln)” value worked out at 6.91.

For “TAATGGAGAAAATAATGTACTTAGATATTTGTTCTA [XGTACX_site6312]”, the “gcPBM binding intensity (ln)” value came out at 6.75.

As to “AAGAACAAACAAAATAGTACAATATATATATATATA [XGTACX_site4258]”, the “gcPBM binding intensity (ln)” value worked out at 9.48.

For the sequence “TTTAAATATTTTATAGCATGCTACCAATATGTATAT [TGCATGCA_site291]”, the “gcPBM binding intensity (ln)” value was 7.15.

For “AACTATAATTAAAGGATGCACTTGAAGGCATTTCAA [GTGCAC_site9689]”, the “gcPBM binding intensity (ln)” value was determined as 7.8.

Consider “TATTCATAACAATGATGTACATATATTTTTTTTTTC [XGTACX_site5619]”, for which the “gcPBM binding intensity (ln)” value is 7.02.

In the case of “CATATATAGATATATACACACATATAGATTTTCTTT [CACACA_site6797]”, the “gcPBM binding intensity (ln)” value is 6.9.

Turning to “TTTAATCAATGATTTAATGAAAAAAGCAAAAAAAAA [GTGCAC_negctrl_site213]”, the “gcPBM binding intensity (ln)” value came to 6.9.

For the sequence “CGTTTGGTACACGTAGTGTTTTCGTTTGAATGTACC [GTGCAC_negctrl_site201]”, the “gcPBM binding intensity (ln)” value was determined as 7.

As for “TTTAATTTTCCCTTCACACATAATATATATCTGTAT [CACACA_site5370]”, the “gcPBM binding intensity (ln)” value was determined as 7.08.

“GACATATATAGCAATCGTACATATATTATAAAAGGT [XGTACX_site6891]”: the “gcPBM binding intensity (ln)” value is 7.46.

As to “AAAAGGAACAGACACACACACATATATAAATATGTA [CACACA_site7656]”, the “gcPBM binding intensity (ln)” value was determined as 6.87.

As to “TTTTTTTATATTATACGCACTAATATATATATATAT [XGTACX_negctrl_site40]”, the “gcPBM binding intensity (ln)” value was determined as 8.94.

Regarding “TAACACTTTTTTTTTCGTACATATATTATATATATA [XGTACX_site5470]”, the “gcPBM binding intensity (ln)” value was determined as 8.09.

“AAATAGACATAAAAAGGTACACAAATTGTGTATTAA [XGTACX_site527]”: the “gcPBM binding intensity (ln)” value came out at 6.75.

For the sequence “TTTTTATTAGGACATGCATACAAAATTAAAAAAAAT [TGCATGCA_site258]”, the “gcPBM binding intensity (ln)” value was found to be 7.36.

Regarding ATATATATATTTAAGGTGCGATTTTGTTATATTTAA, the “gcPBM binding intensity (ln)” value is 9.22.

Turning to “TTATTAAAATATTAAAGTACAAAAAAAATAAATAAA [XGTACX_site6507]”, the “gcPBM binding intensity (ln)” value amounted to 6.76.

For “TTATGTATATTATAAATTAATACATTTAAATTAATA [CACACA_negctrl_site34]”, the “gcPBM binding intensity (ln)” value turned out to be 6.66.

For the sequence “AATTATATTAATATATAATAAAATAGGATGTTATTT [XGTACX_negctrl_site309]”, the “gcPBM binding intensity (ln)” value was found to be 6.76.

For the sequence “GTATATAATTTATGTGCACACACTCCTATTTTTAGC [CACACA_site49]”, the “gcPBM binding intensity (ln)” value is 8.89.

“CTTATTTTATGTTATACACACAAAGAAAAAAAATAA [CACACA_site2165]”: the “gcPBM binding intensity (ln)” value was 7.09.

On to “TATTAATTTATTTGTTGTACGTAAATATGCTTGTTT [XGTACX_site6591]”, for which the “gcPBM binding intensity (ln)” value is 7.26.

Consider “AAAAAAAAAAAAAATTGTACCCAAATATTTTTGTAG [XGTACX_site8303]”, for which the “gcPBM binding intensity (ln)” value is 7.05.

As to “TGAGCATAAAAAGGGTGTACTTAAATATATTATATA [XGTACX_site7556]”, the “gcPBM binding intensity (ln)” value turned out to be 6.99.

As for “GAATATAATCTGTATTGTACGAAAGTTGAACACTTG [XGTACX_site8895]”, the “gcPBM binding intensity (ln)” value amounted to 6.96.

In the case of “TTGTATTATTATGTTGCACACATTTTATATAAAATA [CACACA_site3641]”, the “gcPBM binding intensity (ln)” value was found to be 7.79.

Consider “TATATATATATATATATATATACAAATATATATTAT [CACACA_negctrl_site1729]”, for which the “gcPBM binding intensity (ln)” value was 9.67.

As for “TTTAGATAATTCATTACACACATGTATTTATATATA [CACACA_site5847]”, the “gcPBM binding intensity (ln)” value was 6.8.

Turning to “ATAAAAGATATTTTTACACACTTTTGATGAGATCGT [CACACA_site3053]”, the “gcPBM binding intensity (ln)” value was 6.83.

In the case of “ATACCAACATATTATACACACCTTTATATTTTTTTT [CACACA_site5217]”, the “gcPBM binding intensity (ln)” value turned out to be 7.13.

“GGTTGTATAAGTTTTTGTACATATATATATATATAT [XGTACX_site7487]”: the “gcPBM binding intensity (ln)” value was 8.94.

Consider “TTCAAGGTTTTAGATTGTACAATTATTATATATATA [XGTACX_site8982]”, for which the “gcPBM binding intensity (ln)” value came to 7.9.

For “TAATAAGAAATAACAGGTACACATATATAAATATTA [XGTACX_site2976]”, the “gcPBM binding intensity (ln)” value was 6.76.

For “ATATGTAGATGATATTATTACTTTTCAAAAATTCAA [CACACA_negctrl_site933]”, the “gcPBM binding intensity (ln)” value was 6.87.

Consider “TTTTTCATTAATACAAGTACAAAATGATGTTGACAT [XGTACX_site1475]”, for which the “gcPBM binding intensity (ln)” value came out at 7.03.

Turning to “AAGTATAAAAAAAGGCGTACAAAAAAAAAAAAAAAA [XGTACX_site7309]”, the “gcPBM binding intensity (ln)” value was found to be 6.95.

In the case of “TTTTTGTAAAAACACACACACAAACAGAAAAAATAA [CACACA_site2076]”, the “gcPBM binding intensity (ln)” value turned out to be 7.06.

For “TGTGCCCAAAATTATGCACACACCTAAAATTAATTT [CACACA_site2914]”, the “gcPBM binding intensity (ln)” value was 7.79.

In the case of “ATGGTAGTTCTCCATGCATGCCTTTTTATTATCATA [TGCATGCA_site681]”, the “gcPBM binding intensity (ln)” value came out at 6.66.

With “ACTATTTAGTCTGGTGGTACTTTATATATAATTTCT [XGTACX_site5618]”, the “gcPBM binding intensity (ln)” value came out at 7.08.

With “ATATGTGTATGTGCGTGTACATATCTATACAGTTGT [XGTACX_site6540]”, the “gcPBM binding intensity (ln)” value was 7.32.

Regarding “TTTTATCTTTTTTTATTTTAATGTATTATTTTTATG [XGTACX_negctrl_site24]”, the “gcPBM binding intensity (ln)” value turned out to be 6.6.

On to “ATTATCATAATGTTCACACATATGGTATATATAGAT [CACACA_site6113]”, for which the “gcPBM binding intensity (ln)” value was found to be 7.12.

For the origin of these results see the supplement of paper PMC11417369.
